# Reference: the supplement of paper PMC4166925
# ± gives the standard deviation of the averaged measurements. Whole data set: some 33,000 sequences, median “E-score (dimensionless, -0.5 to 0.5)” near -0.049, cut for the highest 2% near 0.37. Some of the results follow.
# System: T1, PmTbr T-box DNA-binding domain (GST fusion)
# T1 sequence: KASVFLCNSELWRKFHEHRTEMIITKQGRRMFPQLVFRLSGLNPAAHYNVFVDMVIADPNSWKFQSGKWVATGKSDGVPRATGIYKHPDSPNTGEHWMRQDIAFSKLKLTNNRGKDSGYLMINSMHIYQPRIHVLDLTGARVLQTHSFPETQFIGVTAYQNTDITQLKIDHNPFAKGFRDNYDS
# Assay: PBM E-score of 8-mer (E-score (dimensionless, -0.5 to 0.5)); Tbr is Tbrain of the sea star Patiria miniata (Pm) or the sea urchin Strongylocentrotus purpuratus (Sp); higher = stronger binding preference; most listed sequences are background and not binding sites
# Settings: the construct has about 5 more residues each side
# Procedure, shortened: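 Primer extension turned Universal Agilent oligonucleotide arrays double-stranded. They were incubated with 200 nM protein in PBS (pH 7.5); the protein was a GST-fused Tbr T-box DNA-binding domain expressed in BL21 E. coli at 20 °C and purified on glutathione. Every ungapped 8-mer was scored from the scanned, quantified probe intensities, and the Universal PBM Analysis Suite gave each an enrichment E-score averaged over duplicate arrays.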
row,Sequence,PBM E-score of 8-mer
1,ACTTCAGC,-0.0973 ± 0.03
2,GATAGGAA,-0.201 ± 0.044
3,GGATTACC,-0.179 ± 0.019
4,TGTGACAA,0.42 ± 0.028
5,GTTTCCTA,-0.149 ± 0.068
6,ACAGCAAC,0.00556 ± 0.07
7,ATCCTAAG,-0.0624 ± 0.055
8,AAAACGGA,-0.0616 ± 0.0082
9,CATTGTAC,-0.241 ± 0.04
10,CGTATCAC,0.209 ± 0.024
11,AAAGACGT,-0.108 ± 0.008
12,CATGGTAG,-0.144 ± 0.062
13,GATACAAA,-0.169 ± 0.032
14,CAGCGGGG,0.056 ± 0.072
15,ATTATCGA,0.0846 ± 0.05
16,GGGGTCGA,0.0145 ± 0.026
17,GACTGAGC,-0.198 ± 0.013
18,CATCATAC,-0.119 ± 0.039
19,ATATCGAG,-0.157 ± 0.02
20,ACGAAGCA,-0.135 ± 0.0054
21,AATGCTCT,-0.194 ± 0.053
22,CCCTCCTA,-0.0631 ± 0.076
23,GCAAATAC,-0.064 ± 0.092
24,GCCTAGTA,-0.0564 ± 0.01
25,AGAGTTAC,-0.172 ± 0.034

row,Sequence,PBM E-score of 8-mer
1,CATTATAA,-0.112 ± 0.073
2,GATGGAAC,-0.0526 ± 0.053
3,AATGTTTG,-0.177 ± 0.022
4,ACAGTTGG,0.192 ± 0.02
5,AAGCATAG,-0.307 ± 0.013
6,TAGACAGA,-0.0581 ± 0.028
7,ACCGATTG,-0.0556 ± 0.022
8,AACATGCT,-0.192 ± 0.038
9,GTAACGAA,-0.0904 ± 0.066
10,CAATATTG,0.0273 ± 0.1
11,AGATTCAA,-0.153 ± 0.007
12,AATTGTCA,0.339 ± 0.015
13,CGGGGCCC,-0.2092 ± 0.00056
14,CCCATACG,-0.116 ± 0.078
15,CGTATGCA,-0.0979 ± 0.032
16,AAAAGAGT,-0.157 ± 0.041
17,AGAGAGGC,-0.129 ± 0.017
18,CAGCCAGA,-0.0394 ± 0.019
19,GAAAGCTC,-0.121 ± 0.017
20,GAGGGTCA,-0.08798 ± 0.0008
21,GTACATGA,-0.0366 ± 0.016
22,CACCACGC,0.176 ± 0.08
23,CAACGAGG,-0.089 ± 0.031
24,CATAAGCC,-0.275 ± 0.051
25,CTGGCATA,0.0404 ± 0.058

row,Sequence,PBM E-score of 8-mer
1,TCTAGTCA,-0.24 ± 0.039
2,CCGCGGTA,-0.134 ± 0.0082
3,CAACGAGA,-0.0477 ± 0.027
4,GCTCTTAC,-0.271 ± 0.078
5,TGCTCAAA,-0.00795 ± 0.036
6,CGGTCCTC,-0.186 ± 0.054
7,CAGGTGAC,0.4485 ± 0.0027
8,GGTCATGA,-0.329 ± 0.011
9,CGAAACTA,0.0184 ± 0.0051
10,CCTCGCGC,0.337 ± 0.024
11,AGTGCAAT,0.0547 ± 0.033
12,ATCTAGAG,0.0499 ± 0.037
13,ATCTATGA,-0.158 ± 0.024
14,AGGCCCCG,-0.298 ± 0.012
15,ATACCTGA,-0.0897 ± 0.035
16,CTCATAAA,-0.145 ± 0.01
17,CCTAGACA,-0.0098 ± 0.026
18,CGATTTGC,0.184 ± 0.057
19,AGAGCTCA,-0.322 ± 0.044
20,ACCTCATA,0.0396 ± 0.012
21,ATGTGTAG,0.148 ± 0.05
22,CTCGTGTA,0.0334 ± 0.019
23,GCGATCGC,0.174 ± 0.048
24,GGAGGTAA,-0.034 ± 0.12
25,GGCTTGAC,-0.102 ± 0.016

row,Sequence,PBM E-score of 8-mer
1,ACAATGAA,0.0822 ± 0.054
2,AGCCGGTA,-0.175 ± 0.042
3,CGCTGTGA,0.229 ± 0.0037
4,CCCCCCAG,-0.169 ± 0.051
5,GATTACAA,-0.0245 ± 0.06
6,GGGACAGA,-0.0601 ± 0.073
7,ATTGGTCG,-0.0157 ± 0.093
8,TCAAGCGA,-0.053 ± 0.061
9,CGCGACGC,0.239 ± 0.017
10,CGTACTCA,-0.0458 ± 0.053
11,CCGGCGCA,-0.112 ± 0.04
12,CAAGACAC,0.223 ± 0.027
13,CTTGCAAG,0.341 ± 0.067
14,ATAGCGTA,-0.0291 ± 0.031
15,ATATGTTA,-0.147 ± 0.063
16,TACCCTGA,-0.104 ± 0.07
17,CTGACGAC,-0.00658 ± 0.017
18,ACAGCATC,-0.149 ± 0.087
19,AATGAGGA,-0.349 ± 0.061
20,CCAATAGC,0.0682 ± 0.031
21,CTGGACAG,-0.0594 ± 0.021
22,ATTAATTG,-0.0107 ± 0.016
23,ACGTTCCC,-0.118 ± 0.035
24,AACTTGTG,0.171 ± 0.021
25,AGAATCTA,0.151 ± 0.0012

row,Sequence,PBM E-score of 8-mer
1,CGTCCAAA,-0.157 ± 0.0094
2,ATGGGAAG,-0.187 ± 0.0021
3,AAACGATA,0.024 ± 0.047
4,ATTTTAGG,-0.17 ± 0.064
5,CACCGACA,0.274 ± 0.027
6,AGAGTGAG,0.123 ± 0.022
7,CGGAGGAC,-0.28 ± 0.012
8,AACGGGTA,0.105 ± 0.042
9,AAAAGTAG,-0.176 ± 0.048
10,ACTTGTCA,0.4044 ± 0.0039
11,AGCAAGAC,-0.124 ± 0.035
12,GTGCCCGA,0.0236 ± 0.034
13,AAGTACTG,-0.137 ± 0.025
14,ACACGCCG,0.236 ± 0.017
15,AAACACAA,0.093 ± 0.021
16,ACATCCCG,0.0506 ± 0.012
17,AGACGCGA,0.0338 ± 0.11
18,CTTGCGTA,-0.00524 ± 0.0081
19,GCAGAAAC,-0.123 ± 0.011
20,AGATCGCG,0.302 ± 0.013
21,AAGTTACG,-0.089 ± 0.012
22,GACACGCA,0.141 ± 0.029
23,ACTAAAAG,0.0789 ± 0.096
24,GCTAGATA,0.00722 ± 0.074
25,TATAGTCA,-0.041 ± 0.008

row,Sequence,PBM E-score of 8-mer
1,GTATGGTA,-0.161 ± 0.0085
2,CCAGACTC,-0.255 ± 0.029
3,AAGCTGAG,-0.0617 ± 0.068
4,CTAAGAGA,-0.23 ± 0.017
5,CGAGAACC,0.0878 ± 0.053
6,CCCCTAGG,-0.0463 ± 0.05
7,GAGAGCAC,0.00284 ± 0.03
8,GACAGTAC,-0.048 ± 0.096
9,CTTAGTTC,-0.226 ± 0.032
10,ACCGTTCT,-0.0546 ± 0.035
11,GAATCTAC,-0.222 ± 0.02
12,GAGTGCAA,0.0826 ± 0.02
13,AAGACGGC,0.0428 ± 0.031
14,TCAAAGGA,-0.236 ± 0.066
15,ATGTTATG,0.0197 ± 0.062
16,CGCAATGC,-0.0307 ± 0.0037
17,ACCACAGT,-0.0574 ± 0.015
18,GTAGATAC,-0.283 ± 0.12
19,CACCACTA,0.128 ± 0.087
20,CAGGACCC,-0.269 ± 0.0099
21,CGCAGTGA,0.00468 ± 0.0035
22,ATTGTAAC,0.0315 ± 0.012
23,CCACGAAC,0.0733 ± 0.013
24,ACATGACG,0.114 ± 0.066
25,CCAGGACG,-0.0996 ± 0.027

row,Sequence,PBM E-score of 8-mer
1,GCAGGTCC,-0.21 ± 0.029
2,CAAAATTA,0.196 ± 0.077
3,CTGCTTCA,0.072 ± 0.033
4,CCCCAAGG,0.0817 ± 0.065
5,CCAACTGA,-0.105 ± 0.0028
6,AAACATGT,0.0785 ± 0.032
7,CGTCATAA,-0.0926 ± 0.0093
8,GTTGCACA,0.154 ± 0.0076
9,AAATCCAC,-0.0717 ± 0.046
10,AGAGCTTG,-0.238 ± 0.032
11,ATTCACAG,0.355 ± 0.0076
12,ATGAGAGG,-0.169 ± 0.061
13,AGCCCGTA,-0.113 ± 0.068
14,ACGAAGAA,-0.157 ± 0.018
15,AACGTTTA,-0.232 ± 0.0033
16,GCCACTCC,-0.0106 ± 0.059
17,GTACGATA,-0.168 ± 0.017
18,ACGGAATA,0.0775 ± 0.041
19,ACGCCGGA,-0.0954 ± 0.06
20,AAACACCC,0.227 ± 0.027
21,CCCGTCGC,0.0821 ± 0.044
22,ACTGCTAG,0.0461 ± 0.039
